Experimental data reported in PubChem BioAssay AID504332 (National Center for Advancing Translational Sciences (NCATS), 2011).
Values joined by “and” are separate entries in the source; they are usually repeats but may differ in a detail not shown here. Equal values may be shown once. In all, about 350,000 compounds went through this assay and about 31,000 (8.9%) were called active. Inconclusive results, whose numbers are uncertain, are shown with a selection of clear calls. Calls follow the shape of the dose curve; as a rule, active = well fitted inhibition curve with a large enough effect; inconclusive = small, poorly fitted or top-dose-only effect; inactive = no such curve, though single readings can be large or run the other way. Where the call is inconclusive, the potency comes from a doubtful curve fit.
% is scaled to controls: 0 for no effect and ±100 for the full control effect; potency is read from the fitted curve at half-maximal effect; tags tell the direction and shape of the fitted curve.
Also: nearly all actives have a fitted effect of over 75% in size.

What follows are molecules tested against Histone-lysine N-methyltransferase EHMT2 (Homo sapiens) (UniProt Q96KQ7) (assay: qHTS Assay for Inhibitors of Histone Lysine Methyltransferase G9a). Settings: G9a H3K9 monomethylation, AlphaScreen, 2 h; activity, negative = inhibition: at 59 µM (top of the series) unless noted.
Sequence of UniProt Q96KQ7 (Q96KQ7 whole entry, looked up): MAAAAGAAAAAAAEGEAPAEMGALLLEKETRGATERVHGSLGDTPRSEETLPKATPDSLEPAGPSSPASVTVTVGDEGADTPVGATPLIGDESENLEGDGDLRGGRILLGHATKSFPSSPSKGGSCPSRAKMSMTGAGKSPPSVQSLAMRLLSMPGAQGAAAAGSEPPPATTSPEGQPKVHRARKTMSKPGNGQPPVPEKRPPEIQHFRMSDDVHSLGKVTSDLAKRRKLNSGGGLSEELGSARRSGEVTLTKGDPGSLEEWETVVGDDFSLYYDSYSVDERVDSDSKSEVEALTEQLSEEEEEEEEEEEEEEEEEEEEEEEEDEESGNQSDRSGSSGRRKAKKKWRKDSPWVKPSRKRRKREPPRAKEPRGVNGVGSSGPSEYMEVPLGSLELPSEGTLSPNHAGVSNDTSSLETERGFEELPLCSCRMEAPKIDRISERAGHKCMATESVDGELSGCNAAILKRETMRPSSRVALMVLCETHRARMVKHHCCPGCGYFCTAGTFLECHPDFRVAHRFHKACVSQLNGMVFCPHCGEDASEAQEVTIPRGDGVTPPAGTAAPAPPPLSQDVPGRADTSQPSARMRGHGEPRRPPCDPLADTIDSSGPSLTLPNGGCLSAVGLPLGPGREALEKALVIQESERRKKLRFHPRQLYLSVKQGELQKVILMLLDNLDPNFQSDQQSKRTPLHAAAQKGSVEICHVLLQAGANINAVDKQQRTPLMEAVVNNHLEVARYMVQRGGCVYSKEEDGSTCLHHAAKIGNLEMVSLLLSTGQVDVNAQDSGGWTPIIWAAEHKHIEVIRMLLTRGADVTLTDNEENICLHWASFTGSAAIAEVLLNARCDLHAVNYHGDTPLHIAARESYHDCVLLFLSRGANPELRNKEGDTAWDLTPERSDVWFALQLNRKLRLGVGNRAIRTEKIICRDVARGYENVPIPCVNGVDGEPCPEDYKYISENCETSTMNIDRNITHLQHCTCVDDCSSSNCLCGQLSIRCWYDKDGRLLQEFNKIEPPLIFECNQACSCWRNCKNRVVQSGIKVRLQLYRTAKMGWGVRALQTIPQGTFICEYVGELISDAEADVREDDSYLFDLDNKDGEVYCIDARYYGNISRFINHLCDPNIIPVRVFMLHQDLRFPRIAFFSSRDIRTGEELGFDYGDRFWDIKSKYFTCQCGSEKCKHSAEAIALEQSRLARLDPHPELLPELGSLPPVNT
Summary of the method: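 Chemiluminescent proximity detection of H3K9 monomethylation, read after 10 min bead incubation in the dark. Reaction: 20 nM G9a, 500 nM biotin-H3K9 peptide, 20 uM SAM cofactor, 2 h, room temperature, following 15 min enzyme-compound preincubation.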
In the case of `CC(C(=O)N=c1sc2ccccc2n1C)N1C(=O)C2CC=CCC2C1=O` (stereo not drawn), the Potency is reported as inconclusive: 1.78 µM [inhibitor, full curve, poor fit].
`CCOC(=O)c1ccc(NC(=O)c2nc(S(=O)(=O)Cc3ccccc3)ncc2Cl)cc1` was tested, and the Potency was active: 10 µM and active: 22.4 µM.
For `NNC(=O)c1cn2ccccc2n1`, the Potency was active: 3.16 µM.
In the case of `COc1ccc(NC(=O)c2c(NCc3ccc(C)o3)sc3c2CCC(C)C3)cc1` (stereo not drawn), the Potency is reported as active: 8.91 µM.
In the case of `COc1ccc(C(=O)CN2C3=NCCCN3c3ccccc32)cc1OC`, the Potency is reported as active: 44.7 µM.
`CCC(CC)C(=O)Nc1cccc(C(=O)c2ccccc2)c1` was tested, and the Potency was “inactive”.
For `COCCCNS(=O)(=O)c1ccc2[nH]c3c(c2c1)CCCCC3`, the Potency was inconclusive: 79.4 µM [inhibitor, single point].
In the case of `c1ccc(C2c3[nH]c4ccccc4c3CCN2Cc2cccn2-c2ccccn2)nc1` (stereo not drawn), the Potency is reported as inconclusive: 0.708 µM [inhibitor, full curve, poor fit].
With `Cc1ccccc1OCC(=O)NNC(=O)c1ccc(-n2cncn2)c([N+](=O)[O-])c1` the Potency was “inactive”.
`Cc1ccc(O)c(C2=NOC(O)(C(F)(F)F)C2)c1` (stereo not drawn) was tested, and the Potency was inconclusive: 39.8 µM [inhibitor, single point].
In the case of `O=C1NN(c2ccc(Cl)c(Cl)c2)C(=O)/C1=C/c1ccc(-c2ccccc2C(=O)O)o1`, the Potency is reported as active: 39.8 µM.
With `O=C(c1cccc(S(=O)(=O)Nc2cccc(C(F)(F)F)c2)c1)N1CCCCC1` the Potency was inconclusive: 89.1 µM [inhibitor, single point].
`CCn1c(Cc2ccc(OC)cc2)nnc1SCC(=O)Nc1ccc(N2CCOCC2)cc1` was tested, and the Potency was “inactive”.
In the case of `CCCCNC(=O)c1sc(=S)n(-c2ccccc2OC)c1N`, the Potency is reported as active: 15.8 µM.
For `COc1ccccc1NC(=O)C(C)OC(=O)C(C)SCC(=O)Nc1ccc(C)cc1` (stereo not drawn), the Potency was active: 35.5 µM.
`O=C(N=C1N=C2C=CC(Br)=CN2Cc2ccccc21)c1ccc([N+](=O)[O-])cc1[N+](=O)[O-]` was tested, and the Potency was active: 50.1 µM.
`COc1ccc(-c2cn[nH]c2-c2ccc(OCc3ccc(F)cc3)cc2O)cc1OC` was tested, and the Potency was inconclusive: 39.8 µM [inhibitor, partial curve].
With `COc1ccc(NC(=O)Cn2c(=O)n(-c3ccc(Cl)cc3)c(=O)c3c(C)c(C(=O)N(C)C)sc32)cc1Cl` the Potency was “inactive”.
In the case of `COC(=O)c1ccc2nc(C)cc(Nc3ccc(O)cc3)c2c1`, the Potency is reported as inconclusive: 12.6 µM [inhibitor, partial curve].
For `C=CCn1c(C)nnc1SCC(=O)c1c(N)n(C2CC2)c(=O)[nH]c1=O`, the Potency was inconclusive: 89.1 µM [inhibitor, single point].
In the case of `O=C(Nc1cc2c(cc1Br)OCCO2)c1ccco1`, the Potency is reported as inconclusive: 20 µM [inhibitor, single point].
For `Cc1[nH]c2ccccc2c1C(=O)CN1C(=O)C(=O)N(C2CCCC2)C1=O`, the Potency was “inactive”.
`O=C(CSc1ccc(Cl)cc1)c1ccco1` was tested, and the Potency was inconclusive: 25.1 µM [inhibitor, partial curve, poor fit].
With `Cc1cc(=O)oc2cc(OCC(=O)N3CCCc4ccccc43)ccc12` the Potency was inconclusive: 1.78 µM [inhibitor, partial curve, poor fit].
With `CCOc1cc(/C=N/Nc2ncnc(Cl)c2N)ccc1O` the Potency was inconclusive: 35.5 µM [inhibitor, single point].
With `CCCOc1ccc(/C(O)=C2/C(=O)C(=O)N(CCCn3ccnc3)C2c2cccnc2)cc1` (stereo not drawn) the activity, negative = inhibition was inconclusive: -88.1% [inhibitor].
`CC(O)CNC(=O)C1CCN(Cc2ccc(OCc3ccccc3)cc2)CC1` (stereo not drawn) was tested, and the Potency was active: 3.98 µM.
For `CCOc1ccc(N2CC(c3nc4ccccc4n3CCCOc3ccc(OC)cc3)CC2=O)cc1` (stereo not drawn), the Potency was inconclusive: 11.2 µM [inhibitor, partial curve, poor fit].
`C=CCn1c(Cc2c(C)[nH]c3ccccc23)nnc1SCC(=O)NCc1ccc(F)cc1` was tested, and the Potency was inconclusive: 39.8 µM [inhibitor, single point].
In the case of `O=C(CCc1nnc(Cc2ccc3c(c2)OCO3)o1)NC(c1ccccn1)C(F)(F)F` (stereo not drawn), the Potency is reported as inconclusive: 70.8 µM [inhibitor, partial curve, poor fit].
In the case of `CC(C)c1ccc(N=c2c([N+](=O)[O-])nn(-c3ccc4c(c3)OCCO4)n2O)cc1`, the Potency is reported as inconclusive: 89.1 µM [inhibitor, single point].
For `COc1ccc(Br)c2c1-c1nc(NC(=O)c3ccccc3SC)sc1C2`, the Potency was inconclusive: 3.16 µM [inhibitor, full curve, poor fit].
For `COc1ccc(N2CCN(C(=O)Cn3nnc(-c4ccc(OC)c(OC)c4)n3)CC2)cc1`, the Potency was “inactive”.
With `CN(Cc1ccco1)C(=O)c1c[nH]c2ccc(S(=O)(=O)Nc3ccc4c(c3)OCCO4)cc2c1=O` the Potency was active: 89.1 µM.
In the case of `CCOC(=O)c1ccc(NC(=O)C(=O)NCc2ccco2)cc1`, the Potency is reported as “inactive”.
With `O=C(Nc1ccc2c(c1)OCO2)c1ccc(Cl)nc1` the Potency was inconclusive: 89.1 µM [inhibitor, single point].
In the case of `COc1ccccc1C(=O)C1CCCN(C(=O)CCC(=O)c2ccccc2)C1` (stereo not drawn), the Potency is reported as inconclusive: 79.4 µM [inhibitor, partial curve, poor fit].
`Cc1cccc(C2NC(=O)c3c(sc4c3CCN(C)C4)N2)c1O` (stereo not drawn) was tested, and the Potency was inconclusive: 8.91 µM [inhibitor, full curve, poor fit].
`Cn1c2c(c(=O)n(C)c1=O)C(c1ccccc1OC(F)F)C1=C(CCCC1=O)N2` (stereo not drawn) was tested, and the Potency was inconclusive: 79.4 µM [inhibitor, single point].
With `O=C(NC(=S)Nc1ccc(CN2CCOCC2)cc1)c1cc2ccccc2o1` the Potency was inconclusive: 20 µM [inhibitor, partial curve, poor fit].
In the case of `COc1cccc(/C=N/NC(=O)COc2cccc3cccnc23)c1O`, the Potency is reported as “inactive”.
`CC(C)CN(C(=O)CN(C)C(=O)c1ccco1)c1c(N)n(CC(C)C)c(=O)[nH]c1=O` was tested, and the Potency was active: 50.1 µM.
`COc1ccc(/C(O)=C2\C(=O)C(=O)N(CCN3CCOCC3)C2c2ccccc2OC)cc1` (stereo not drawn) was tested, and the Potency was inconclusive: 31.6 µM [inhibitor, single point].
For `CCOc1ccccc1/C=C(/NC(=O)c1ccccc1)C(=O)NC(C)c1ccccc1` (stereo not drawn), the Potency was inconclusive: 0.794 µM [inhibitor, partial curve, poor fit].
For `Cc1ccc2[nH]c3c(c2c1)CN(C(=O)CN1CCN(C(=O)c2ccco2)CC1)CC3`, the Potency was inconclusive: 89.1 µM [inhibitor, single point].
`Cc1cccc(C)c1-n1c(C)cc(/C=N/NC(=O)c2ccncc2)c1C` was tested, and the activity, negative = inhibition was inconclusive: -61.9% [inhibitor].
With `O=C(CNc1cccc2ccccc12)N/N=C/c1ccc([N+](=O)[O-])o1` the Potency was inconclusive: 20 µM [inhibitor, single point].
With `CCCC[n+]1ccn(-c2nc3c([N+](=O)[O-])cccc3n2C)c1` the Potency was inconclusive: 39.8 µM [inhibitor, single point].
`CCc1ccc(Nc2nnc(SCC(=O)c3ccc4c(c3)NC(=O)CO4)s2)cc1` was tested, and the Potency was active: 15.8 µM.
`CCOc1ccc(NC(=O)CC2CC(C)(C)OC2=O)cc1` (stereo not drawn) was tested, and the Potency was “inactive”.
In the case of `COc1ccc(OC)c(NC(=O)C(CC(=O)O)Cc2ccc(Cl)cc2)c1` (stereo not drawn), the Potency is reported as inconclusive: 56.2 µM [inhibitor, partial curve, poor fit].
With `Cc1cnc(C)c(N2CCN(Cc3nc(-c4ccc(C)o4)oc3C)CC2)n1` the Potency was inconclusive: 79.4 µM [inhibitor, partial curve, poor fit].
For `COc1ccccc1-c1c(C)nn2c(N3CCN(c4ccc(Cl)cc4)CC3)cc(C)nc12`, the Potency was “inactive”.
In the case of `CCOC(=O)Cc1csc(N/N=C\c2ccc(N(C)C)cc2)n1`, the Potency is reported as active: 44.7 µM.
In the case of `CCCCOc1ccc(S(=O)(=O)Nc2cccc(-c3ccc(N4CCOCC4)nn3)c2)cc1`, the Potency is reported as “inactive”.
For `CCCCCCOc1ccc(N2C(=O)CC(N(CCc3ccc(S(N)(=O)=O)cc3)C(C)=O)C2=O)cc1` (stereo not drawn), the Potency was inconclusive: 70.8 µM [inhibitor, partial curve, poor fit].
With `CC(C)OC(=O)CC(=O)CSc1nc2c(cc1C#N)CCCC2` the Potency was inconclusive: 25.1 µM [inhibitor, single point].
`Cc1ccc(CN(C)C(=O)c2ccc(S(=O)(=O)N(C)c3ccccc3)cc2)o1` was tested, and the activity, negative = inhibition was inactive: 8.15% [at 0.501 µM].
With `CCN(CC)CCn1c(=N)n(CC(O)COc2ccccc2C)c2ccccc21` (stereo not drawn) the Potency was inconclusive: 12.6 µM [inhibitor, partial curve, poor fit].
`CCC(NC(=O)CCc1c(C)c2cc3c(-c4ccccc4)coc3cc2oc1=O)C(=O)O` (stereo not drawn) was tested, and the Potency was “inactive”.
With `CCn1c(CSc2nnc(-c3ccc4c(c3)OCO4)o2)nc2cc(S(=O)(=O)N(C)C)ccc21` the Potency was inconclusive: 3.98 µM [inhibitor, full curve].
In the case of `CC1CCN(c2ncnc3ccccc23)CC1`, the Potency is reported as inconclusive: 22.4 µM [inhibitor, partial curve, poor fit].
For `Cc1cc(OC(=O)c2cccc(C(F)(F)F)c2)c([N+](=O)[O-])c(=O)[nH]1`, the Potency was inconclusive: 89.1 µM [inhibitor, single point].
For `CC(C)Oc1ccc(OCCCN2CCCCCC2)cc1`, the activity, negative = inhibition was inactive: -37.9% [at 12.7 µM].
For `CS(=O)(=O)c1ccccc1COC(=O)Nc1ccc(Cl)cc1`, the Potency was inconclusive: 70.8 µM [inhibitor, single point].
`Cc1cccc(NC(=O)c2cccc(S(=O)(=O)N3CCCC3)c2)n1` was tested, and the Potency was “inactive”.
`COc1ccc(NC(C)=O)cc1S(=O)(=O)Nc1ccc(OCc2ccccc2)cc1` was tested, and the Potency was active: 44.7 µM.
In the case of `Cn1c(C(=O)N2CCN(C3CCCCC3)CC2)cc2c(=O)n(C)c3ccccc3c21`, the Potency is reported as inconclusive: 89.1 µM [inhibitor, single point].
